# Test results: PubChem BioAssay AID720536 (National Center for Advancing Translational Sciences (NCATS), 2013)
# About 650 (41%) of roughly 1,600 compounds were called active. The set was probably picked from earlier hits. Inconclusive results, whose numbers are uncertain, are shown with a selection of clear calls. The call rests on the fitted dose curve; in most records, active means well fitted inhibition curve with a large enough effect; inconclusive means small, poorly fitted or top-dose-only effect; inactive means no such curve, though single readings can be large or run the other way. No potency is given beside an inconclusive call; the fits are too rough.
# Experiment: qHTS for Inhibitors of TGF-b: CCL64 Cells Orthogonal Assay for Cherry Picks; further: nearly all actives have a fitted effect of over 65% in size;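 on activity, negative = inhibition: 0% = stimulated DMSO wells and full inhibition = unstimulated wells without TGF-beta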
# Settings: CCL64 CAGA-GFP reporter, TGF-b stimulated, GFP fluorescence, 18 h; activity, negative = inhibition: at 46.1 µM (top of the series)
# How it was run: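 CCL64 cells carrying a CAGA-GFP reporter (1000/well, DMEM with 1% FBS) were pre-incubated 2 h at 37 degrees C, given compound, then stimulated with 500 pg/mL TGF-beta for 18 h. Per-cell GFP fluorescence was summed per well.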
# Potency means the concentration at half of the fitted maximal effect; tags describe the fitted curve by direction and shape.
SMILES,Potency,"activity, negative = inhibition"
NC(=O)CC(NC(=O)c1ccc(Br)cc1)c1ccc(N2CCC(Cc3ccccc3)CC2)c([N+](=O)[O-])c1 (stereo not drawn),"inconclusive [inhibitor, single point]",
CCCOc1ccc(CSc2nc3ccccc3[nH]2)cc1,"inconclusive [inhibitor, single point]",
CCc1ccc(-c2cc(C)no2)cc1S(=O)(=O)N1CCCN(Cc2ccc(F)cc2)C1,"inconclusive [inhibitor, single point]",
O=C(c1cccs1)N(Cc1nc2sc3c(c2c(=O)[nH]1)CCCC3)C1CCCC1,"inconclusive [inhibitor, single point]",
O=c1[nH]c(C2CCN(S(=O)(=O)c3ccc(F)cc3)CC2)nc2c1nnn2Cc1ccc2c(c1)OCCO2,"inconclusive [inhibitor, single point]",
Cc1nc(/N=C(\N)NC(=O)NC2CCCCC2)nc2ccccc12,active: 20.6 µM,
CC[C@]12c3[nH]c4cc(-c5ccco5)ccc4c3CCN1C(=O)[C@@H](CC(=O)NCCC1=CCCCC1)C[C@@H]2C(=O)N1CCN(C(=O)c2ccco2)CC1,,inconclusive: -39% [inhibitor]
Cc1cccc(NS(=O)(=O)c2ccc(C)c(C(=O)NC3CCN(Cc4ccccc4)CC3)c2)c1,"inconclusive [inhibitor, single point]",
CCN(CC)C(=O)c1nc[nH]c1C(=O)N1CCN(c2ccccc2)CC1,,inactive: 7.71%
CC(C)n1ncc2c(C(=O)N3CCN(Cc4ccc(Cl)s4)CC3)cc(C3CC3)nc21,"inconclusive [inhibitor, single point]",
CCc1nc2c(OCc3cc(Cl)cc(Cl)c3)cccn2c1N(C)C(=O)c1ccc(OC)cc1,"inconclusive [inhibitor, single point]",
CN(C(=O)c1ccc(NC(=O)Cc2cccc(NC(=O)C3CCN(C(=O)CCc4ccccc4)CC3)c2)cc1)C1CCCC1,,inactive: 12.6%
COc1ccc(C)cc1S(=O)(=O)N(CC(=O)NCc1ccc(Cl)cc1)Cc1ccccc1,"inconclusive [inhibitor, single point]",
CCn1c(C(=O)N2CCCC(C(=O)NCCc3ccc(C)cc3)C2)cc2sccc21 (stereo not drawn),,inactive: -25.2%
Brc1ccc2nc(-c3ccccc3)c(Cc3ccccc3)n2c1,"inconclusive [inhibitor, partial curve, poor fit]",
CN(Cc1ccccc1)S(=O)(=O)c1ccc(NC(=S)NC(=O)C2CCCCC2)cc1,,inactive: 14.4%
CN(c1ccc(F)cc1)S(=O)(=O)c1ccc(Cl)c(C(=O)Nc2ccc3c(c2)CCC3)c1,,inactive: -19.9%
COc1ccc(/C=C/C(=O)c2ccccc2)cc1Cn1nnc2ccccc21,active: 23.1 µM,
C/C(=N\NC(=O)C1COc2ccccc2O1)c1ccccn1 (stereo not drawn),"inconclusive [inhibitor, full curve]",

SMILES,Potency,"activity, negative = inhibition"
O=C(NCc1ccc2c(c1)OCO2)c1cc([N+](=O)[O-])ccc1N1CCCCC1,"inconclusive [inhibitor, single point]",
Cc1ccc(CNC(=O)c2cc3c(C)nc4ccccc4c3o2)cc1,,inactive: -8.4%
COc1cccc(-c2cnc3c(NC=O)cc(-c4cccc(NC(C)=O)c4)cn23)c1,active: 14.6 µM,
CC[C@]12c3[nH]c4ccc(Cl)cc4c3CCN1C(=O)[C@@H](CC(=O)NCC13CC4CC(CC(C4)C1)C3)C[C@@H]2C(=O)N1CCN(C(=O)c2ccco2)CC1,"inconclusive [inhibitor, partial curve, poor fit]",
O=C(COC(=O)CC(c1ccccc1)c1ccccc1)NCc1ccc(Cl)cc1,"inconclusive [inhibitor, single point]",
COC(=O)[C@@]1(Cc2ccc(OC)cc2)[C@H]2c3cc(C(=O)N4CCCC4)n(Cc4c(CO)[nH]cc(C)c4=O)c3C[C@H]2CN1C(=O)c1ccccc1,,inactive: 0.358%
Oc1ccc(C[C@H]2CNC(=S)N2CC2CCCN2C[C@H](Cc2ccc(O)cc2)N2C[C@H](Cc3ccc(O)cc3)N(CC3CCCCCC3)C2=S)cc1 (stereo partly drawn),active: 3.26 µM,
Cc1ccccc1OCC(O)Cn1c(=N)n(Cc2ccccc2)c2ccccc21 (stereo not drawn),"inconclusive [inhibitor, single point]",
COc1nc(Nc2nc3ccccc3c(=O)[nH]2)nc2ccc(C)cc12,active: 1.46 µM,
CC1=C(C(=O)N(C(C)C)C(C)C)CC(CC(=O)NCc2cccc3ccccc23)C(=O)N1Cc1ccc(C(C)(C)C)cc1 (stereo not drawn),"inconclusive [inhibitor, single point]",
Cc1ccc(NCCCn2cnc3c(OCc4ccccc4)ncnc32)cc1C,"inconclusive [inhibitor, single point]",
O=S(=O)(Nc1ccc(C(O)(C(F)(F)F)C(F)(F)F)cc1)c1cccc2cccnc12,,inactive: -24.7%
O=[N+]([O-])c1cccc2c(N3CCCC3)ccnc12,"inconclusive [inhibitor, single point]",
O=C(CCC(=O)N1CCSc2ccccc21)NCc1cccc(Cl)c1,,inactive: 6.95%
CCCCSc1nc(C)cc(SCC(=O)N/N=C/c2cccc(OC)c2O)n1,active: 11.6 µM,
OCC1OC(n2ccc3c2ncn2ncnc32)C(O)C1O (stereo not drawn),,inactive: 4.51%
Cc1ccc(NS(=O)(=O)c2ccc(N3CCN(c4ccc(O)cc4)CC3)c([N+](=O)[O-])c2)c(C)c1,"inconclusive [inhibitor, partial curve, poor fit]",
N#Cc1sc2nccc(Nc3ccccc3)c2c1N,,inactive: 9.94%
COc1ccc(CNC(=O)[C@@H]2CC=C[C@@H]3CCN(Cc4ccc(Cl)c(Cl)c4)C(=O)[C@@H]32)cc1,"inconclusive [inhibitor, single point]",
